Data as given in PubChem BioAssay (Tox21).
Values joined by “and” are separate entries in the source; they are usually repeats but may differ in a detail not shown here. Equal entries are not always repeated. The inconclusive results got no clear call from the source; some entries with a clear call stand among them for comparison. Entries that show only a call come without a potency. For part of these data: Potencies of inconclusive entries are doubtful fits and often do not repeat. Active and inactive are the calls of the source. Unless noted, calls follow the shape of the dose curve; as a rule, active = well fitted curve in the direction sought with a large enough effect in the repeat runs; inconclusive = weak or mixed curves; inactive = no such curve, though single readings can be large; an effect the other way counts as inactive or inconclusive.

How the values were obtained:
[1] = qHTS assay to identify small molecule antagonists of the estrogen receptor alpha (ER-alpha) signaling pathway using the BG1 cell line (AID 743080; calls by dose curve;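 also: BG1 cells stimulated with 17beta-estradiol alongside compound; nearly all actives have a fitted effect of over 25% in size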; also: potency is read from the fitted curve at half-maximal effect); settings: BG1Luc4E2 ERE-luciferase antagonist mode, luminescence; activity change, negative = inhibition: at 70.3 µM (top of the series) unless noted
Outline: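 Quantitative HTS on the Tox21 10K library: BG1 cells with endogenous ER-alpha and ERE-luciferase reporter, 17beta-estradiol stimulation, 21.5 h compound exposure, luminescence endpoint with parallel fluorescence cytotoxicity counter-read.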

[2] = qHTS assay to identify small molecule antagonists of the estrogen receptor alpha (ER-alpha) signaling pathway using the BG1 cell line - cell viability counter screen (AID 743081); settings: BG1Luc4E2 viability, CellTiter-Fluor, 22 h; activity change, negative = cytotoxicity: at 70.3 µM (top of the series);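 also: compound given together with 17beta-estradiol as the ER stimulus; nearly all actives have a fitted effect of over 45% in size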; also: potency is read from the fitted curve at half-maximal effect
[3] = target: Voltage-gated inwardly rectifying potassium channel KCNH2 (Homo sapiens) (UniProt Q12809); experiment: Human Ether-a-go-go-Related Gene (hERG) channel small molecule antagonists: fluorescence cell-based qHTS assay (AID 1671200); settings: hERG-U2OS cells, FluxOR thallium flux fluorescence; series mostly up to 76.8 µM; also: nearly all actives have a fitted effect of over 50% in size; also: potency is read from the fitted curve at half-maximal effect;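 as to activity change, negative = inhibition: hERG-expressing U2OS cells given a thallium stimulus after FluxOR II dye loading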
Outline: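 Channel function was assessed by thallium flux. Cells seeded the previous day and kept at 37 C took up FluxOR II dye over 1 h in the dark at room temperature, then sat another 10 min before stimulation.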

[4] = qHTS assay to identify small molecule antagonists of the androgen receptor (AR) signaling pathway - cell viability counter screen (AID 743033; also: nearly all actives have a fitted effect of over 45% in size; also: potency is read from the fitted curve at half-maximal effect); settings: AR-bla HEK293 viability, CellTiter-Glo luminescence, 16 h; series mostly up to 58.5 µM
[5] = target: Bile acid receptor (Homo sapiens) (UniProt Q96RI1); experiment: qHTS assay to identify small molecule agonists of the farnesoid-X-receptor (FXR) signaling pathway (AID 743220; active = well fitted activation curve with a large enough effect in the signal ratio in the repeat runs, not every such curve was filed as active; inconclusive = weak or mixed curves, or effect the other way; the % refers to the signal ratio); settings: HEK293T FXR-UAS-bla, beta-lactamase FRET ratio, 16 h; activation: at 62.6 µM (top of the series)
Outline: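 FXR-UAS-bla HEK 293T cells carrying a UAS-driven beta-lactamase reporter were plated for 5 h at 37C/5% CO2, then exposed to DMSO-dissolved Tox21 10K compounds for 16 h at 37C. A LiveBLAzer B/G FRET substrate was loaded for 2 h at room temperature before fluorescence reading.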

[6] = A CellTox Green Cytotoxicity Assay to monitor cytotoxicity in HepG2 cells - 24 hour (AID 1224878); settings: CellTox Green fluorescence; series mostly up to 76.8 µM; also: nearly all actives have a fitted effect of over 45% in size; also: potency is read from the fitted curve at half-maximal effect
Outline: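 Cells and non-lytic dye reagent are dispensed together (600 HepG2 cells/well) and incubated 5 h before DMSO compound transfer. Kinetic fluorescence is then recorded in the same wells during 40 h at 37 C.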

[7] = target: Peroxisome proliferator-activated receptor delta (Homo sapiens) (UniProt Q03181); experiment: qHTS assay to identify small molecule agonists of the peroxisome proliferator-activated receptor delta (PPARd) signaling pathway (AID 743212; calls by dose curve); settings: HEK293H PPARd-UAS-bla, beta-lactamase FRET ratio, 17 h; activation: at 62.6 µM (top of the series) unless noted
Outline: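 Read-out: beta-lactamase FRET fluorescence after 2 h room-temperature incubation with LiveBLAzer B/G substrate. Cells were HEK293H carrying a UAS-bla reporter for PPARd, treated at 37 C with DMSO-dissolved compounds.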

[8] = qHTS assay to identify small molecule antagonists of the vitamin D receptor (VDR) signaling pathway - cell viability counter screen (AID 743225); settings: VDR-bla HEK293T viability, CellTiter-Glo luminescence, 16 h; viability change, negative = cytotoxic: at 61 µM (top of the series) unless noted; also: nearly all actives have a fitted effect of over 50% in size; also: potency is read from the fitted curve at half-maximal effect
Outline: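 Read-out: CellTiter-Glo luminescence measured 30 min after reagent addition at room temperature. Cells were VDR-bla HEK 293T exposed 16 h at 37C, 5% CO2, to compound with 3 nM final calcitriol agonist.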

[9] = qHTS assay to identify small molecule agonists of the retinoic acid receptor (RAR) signaling pathway (AID 1159553); settings: C3RL4 RARE luciferase reporter, agonist, 6 h; activation: at 73.3 µM (top of the series) unless noted; also: potency is read from the fitted curve at half-maximal effect
Outline: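 Seed C3RL4 reporter cells at 1,000 per well and incubate overnight at 37 C. Add compounds in DMSO, incubate 6 hr. Add luciferase reagent, wait 30 min at room temperature, read luminescence.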

[10] = qHTS RealTime-Glo MT Cell Viability Assay in HEK293 cells - 16 hour (AID 1224872); settings: RealTime-Glo luminescence; series mostly up to 76.8 µM; also: potency is read from the fitted curve at half-maximal effect; nearly all actives have a fitted effect of over 50% in size
Outline: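 Reads taken at 0, 8, 16, 24, 32 and 40 h from the same wells. HEK293 cells (600/well) carried RealTime-Glo reagents from seeding, with compound added after a 5 h settle at 37 C.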

[11] = target: Acetylcholinesterase (Homo sapiens) (UniProt P22303); experiment: Acetylcholinesterase (AChE) small molecule antagonists: colormetric cell-based qHTS assay (AID 1347395; calls by dose curve; also: potency is read from the fitted curve at half-maximal effect; nearly all actives have a fitted effect of over 30% in size); settings: SH-SY5Y cells AChE activity, colorimetric (Ellman); series mostly up to 115 µM
Outline: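 Colorimetric read-out: DTNB detects thiocholine released when cellular AChE in SH-SY5Y cells hydrolyses acetylthiocholine. Cells attached overnight, received compound for 30 min at 37 C, then substrate mix for 90 min at 37 C.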

[12] = target: Cytochrome P450 3A4 (Homo sapiens) (UniProt P08684); experiment: Cytochrome P450 Family 3 Subfamily A Member 4 (CYP3A4) small molecule antagonists: luciferase reporter qHTS assay (AID 1671201); settings: P450-Glo CYP3A4 enzyme, luciferin luminescence, 1 h; series mostly up to 115 µM; also: nearly all actives have a fitted effect of over 50% in size; also: potency is read from the fitted curve at half-maximal effect
Outline: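 Compounds in DMSO were pin-transferred onto CYP3A4 enzyme-substrate mix and held 10 min at room temperature. NADPH regenerating solution started the reaction for 1 h; luciferin detection reagent stopped it, and luminescence was read after 20 min.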

[13] = target: Estrogen receptor (Homo sapiens) (UniProt P03372); experiment: qHTS assay to identify small molecule agonists of the estrogen receptor alpha (ER-alpha) signaling pathway (AID 743075; calls by dose curve;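 also: HEK293 GripTite cells with ER-alpha and UAS-driven beta-lactamase reporter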; also: potency is read from the fitted curve at half-maximal effect); settings: HEK293 ER-alpha-UAS-bla, beta-lactamase FRET ratio, 18 h; activation: at 70.1 µM (top of the series) unless noted
[14] = target: Thyrotropin receptor (Homo sapiens) (UniProt P16473); experiment: qHTS assay to identify small molecule antagonists of the thyroid stimulating hormone receptor (TSHR) signaling pathway (AID 1259385; calls by dose curve; also: nearly all actives have a fitted effect of over 20% in size; also: potency is read from the fitted curve at half-maximal effect); settings: TSHR-HEK293 cAMP HTRF, TSH-stimulated antagonist mode; activity change, negative = inhibition: at 92.4 µM (top of the series)
Outline: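 TSHR-HEK293 cells (800/well) plated 18 h, then compounds with Ro20-1724 and TSH at 1.5 ng/mL final, 30 min at room temperature. cAMP quantified by HTRF (cAMP-d2/anti-cAMP-cryptate, 1 h); 15 concentrations in triplicate.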

[15] = qHTS assay to identify small molecule agonists of the sonic hedgehog signaling (Shh) pathway - cell viability counter screen (AID 1259366); settings: NIH/3T3 Gli1-Luc viability, CellTiter-Fluor, 24 h; series mostly up to 92.4 µM; also: nearly all actives have a fitted effect of over 50% in size
Outline: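 Cytotoxicity counter screen run in the same wells as the Shh reporter assay. NIH/3T3 cells carrying a Gli1 response element–driven luciferase were treated with DMSO-dissolved compounds for 24hr, and live-cell protease activity was measured with CellTiter-Fluor.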

[16] = qHTS assay for small molecule activators of the heat shock response signaling pathway - cell viability counter screen (AID 743209); settings: HSE-bla HeLa viability, CellTiter-Glo luminescence, 5 h; activity change, negative = cytotoxicity: at 62.6 µM (top of the series); also: nearly all actives have a fitted effect of over 50% in size
Outline: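 Cytotoxicity counter screen run in parallel with the HSE beta-lactamase reporter, using the same wells. HeLa HSE-bla cells received compound for 5 h at 37 C; ATP-based CellTiter-Glo luminescence was measured after 30 min at room temperature.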

[17] = A CellTox Green Cytotoxicity Assay to monitor cytotoxicity in HEK293 cells - 8 hour (AID 1224884); settings: CellTox Green fluorescence; series mostly up to 76.8 µM; also: nearly all actives have a fitted effect of over 35% in size
Outline: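 Cells (HEK293, 600/well) and dye reagent are dispensed together. After 5 h at 37 C, 23 nL compound is pinned in. Plates stay at 37 C for 40 h with fluorescence read at 0h, 8h, 16h, 24h, 32h and 40h.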

[18] = qHTS assay for small molecule agonists of the p53 signaling pathway (AID 651631; calls by dose curve; also: nearly all actives have a fitted effect of over 15% in size; also: potency is read from the fitted curve at half-maximal effect); settings: HCT-116 p53RE-bla reporter, beta-lactamase FRET ratio, 16 h; activation: at 73.3 µM (top of the series) unless noted
Outline: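 Read-out is beta-lactamase FRET fluorescence measured 2 h after substrate addition at room temperature, in HCT-116 cells with a p53 response element-driven reporter exposed to compounds for 16 h at 37 °C.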

[19] = qHTS RealTime-Glo MT Cell Viability Assay in HEK293 cells - 40 hour (AID 1224874); settings: RealTime-Glo luminescence; max response: stronger effect = lower value
Outline: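 Real-time viability in HEK293: signal arises when living cells convert a prosubstrate for NanoLuc in the medium, so luminescence tracks viable cell number. Compound (23 nL, DMSO) added 5 h post-seeding; kinetic reads at 0–40 h, 37 C.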
Tags tell the direction and shape of the fitted curve or compound fluorescence and quenching.

Chain of UniProt P08684 (P08684 whole entry, looked up): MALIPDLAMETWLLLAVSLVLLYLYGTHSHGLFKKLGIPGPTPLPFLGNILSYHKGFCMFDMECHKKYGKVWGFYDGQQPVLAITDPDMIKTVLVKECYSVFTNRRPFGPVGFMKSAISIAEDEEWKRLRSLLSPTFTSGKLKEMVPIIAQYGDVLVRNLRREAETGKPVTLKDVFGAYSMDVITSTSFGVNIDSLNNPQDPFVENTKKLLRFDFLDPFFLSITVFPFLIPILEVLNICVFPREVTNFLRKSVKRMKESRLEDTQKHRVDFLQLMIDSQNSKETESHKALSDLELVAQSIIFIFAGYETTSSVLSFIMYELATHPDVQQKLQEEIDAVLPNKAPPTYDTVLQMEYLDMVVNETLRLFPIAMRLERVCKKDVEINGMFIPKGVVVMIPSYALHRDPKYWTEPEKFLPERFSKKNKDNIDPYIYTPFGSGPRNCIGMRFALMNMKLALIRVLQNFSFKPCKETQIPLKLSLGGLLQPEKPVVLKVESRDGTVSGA
Chain of UniProt P16473 (P16473 whole entry, looked up): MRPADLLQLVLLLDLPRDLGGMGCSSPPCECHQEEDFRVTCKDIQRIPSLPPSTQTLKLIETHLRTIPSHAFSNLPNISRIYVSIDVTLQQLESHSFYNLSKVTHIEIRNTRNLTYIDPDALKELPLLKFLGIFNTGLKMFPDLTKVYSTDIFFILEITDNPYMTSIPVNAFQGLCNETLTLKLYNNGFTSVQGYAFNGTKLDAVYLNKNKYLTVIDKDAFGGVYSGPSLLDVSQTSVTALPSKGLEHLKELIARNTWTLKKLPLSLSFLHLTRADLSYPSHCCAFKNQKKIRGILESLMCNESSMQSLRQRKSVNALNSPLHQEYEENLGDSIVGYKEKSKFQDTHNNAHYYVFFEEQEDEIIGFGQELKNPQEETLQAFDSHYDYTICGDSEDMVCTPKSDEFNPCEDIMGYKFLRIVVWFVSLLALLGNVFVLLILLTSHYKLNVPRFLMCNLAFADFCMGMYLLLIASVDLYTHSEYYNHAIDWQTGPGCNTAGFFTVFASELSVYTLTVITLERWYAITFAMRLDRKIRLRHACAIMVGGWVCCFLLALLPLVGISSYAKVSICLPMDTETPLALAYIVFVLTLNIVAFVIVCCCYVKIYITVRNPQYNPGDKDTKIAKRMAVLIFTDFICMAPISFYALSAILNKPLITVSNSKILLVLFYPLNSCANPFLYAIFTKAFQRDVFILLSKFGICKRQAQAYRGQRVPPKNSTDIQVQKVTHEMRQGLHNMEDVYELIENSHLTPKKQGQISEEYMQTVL
Chain of UniProt Q03181 (Q03181 whole entry, looked up): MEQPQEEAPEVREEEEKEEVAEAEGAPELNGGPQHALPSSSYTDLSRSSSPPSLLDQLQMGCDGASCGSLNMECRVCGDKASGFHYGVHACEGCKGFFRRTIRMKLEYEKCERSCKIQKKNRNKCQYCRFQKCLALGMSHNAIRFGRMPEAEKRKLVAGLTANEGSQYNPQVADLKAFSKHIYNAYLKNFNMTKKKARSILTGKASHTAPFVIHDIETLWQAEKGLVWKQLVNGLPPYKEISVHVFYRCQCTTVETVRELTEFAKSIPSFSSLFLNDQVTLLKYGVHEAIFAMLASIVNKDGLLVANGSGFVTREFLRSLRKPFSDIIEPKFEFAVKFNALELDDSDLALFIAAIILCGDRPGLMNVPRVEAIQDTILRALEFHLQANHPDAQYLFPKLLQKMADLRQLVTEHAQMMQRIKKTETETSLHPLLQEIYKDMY
Chain of UniProt P03372 (P03372 whole entry, looked up): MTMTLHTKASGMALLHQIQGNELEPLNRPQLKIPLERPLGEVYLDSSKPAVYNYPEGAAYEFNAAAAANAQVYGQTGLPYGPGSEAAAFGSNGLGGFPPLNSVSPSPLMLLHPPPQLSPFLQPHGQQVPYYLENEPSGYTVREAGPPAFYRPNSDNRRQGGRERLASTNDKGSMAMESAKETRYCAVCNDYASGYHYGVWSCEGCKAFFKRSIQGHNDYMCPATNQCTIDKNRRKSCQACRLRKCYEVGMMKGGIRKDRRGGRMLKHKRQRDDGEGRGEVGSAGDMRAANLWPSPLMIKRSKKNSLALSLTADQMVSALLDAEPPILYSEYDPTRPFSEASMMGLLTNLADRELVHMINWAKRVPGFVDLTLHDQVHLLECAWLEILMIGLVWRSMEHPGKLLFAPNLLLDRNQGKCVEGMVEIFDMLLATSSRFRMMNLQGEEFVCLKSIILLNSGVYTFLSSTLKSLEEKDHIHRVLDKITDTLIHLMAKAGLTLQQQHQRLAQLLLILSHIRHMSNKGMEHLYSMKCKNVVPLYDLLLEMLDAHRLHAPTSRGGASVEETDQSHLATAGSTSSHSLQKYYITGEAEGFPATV
Chain of UniProt Q12809 (Q12809 whole entry, looked up): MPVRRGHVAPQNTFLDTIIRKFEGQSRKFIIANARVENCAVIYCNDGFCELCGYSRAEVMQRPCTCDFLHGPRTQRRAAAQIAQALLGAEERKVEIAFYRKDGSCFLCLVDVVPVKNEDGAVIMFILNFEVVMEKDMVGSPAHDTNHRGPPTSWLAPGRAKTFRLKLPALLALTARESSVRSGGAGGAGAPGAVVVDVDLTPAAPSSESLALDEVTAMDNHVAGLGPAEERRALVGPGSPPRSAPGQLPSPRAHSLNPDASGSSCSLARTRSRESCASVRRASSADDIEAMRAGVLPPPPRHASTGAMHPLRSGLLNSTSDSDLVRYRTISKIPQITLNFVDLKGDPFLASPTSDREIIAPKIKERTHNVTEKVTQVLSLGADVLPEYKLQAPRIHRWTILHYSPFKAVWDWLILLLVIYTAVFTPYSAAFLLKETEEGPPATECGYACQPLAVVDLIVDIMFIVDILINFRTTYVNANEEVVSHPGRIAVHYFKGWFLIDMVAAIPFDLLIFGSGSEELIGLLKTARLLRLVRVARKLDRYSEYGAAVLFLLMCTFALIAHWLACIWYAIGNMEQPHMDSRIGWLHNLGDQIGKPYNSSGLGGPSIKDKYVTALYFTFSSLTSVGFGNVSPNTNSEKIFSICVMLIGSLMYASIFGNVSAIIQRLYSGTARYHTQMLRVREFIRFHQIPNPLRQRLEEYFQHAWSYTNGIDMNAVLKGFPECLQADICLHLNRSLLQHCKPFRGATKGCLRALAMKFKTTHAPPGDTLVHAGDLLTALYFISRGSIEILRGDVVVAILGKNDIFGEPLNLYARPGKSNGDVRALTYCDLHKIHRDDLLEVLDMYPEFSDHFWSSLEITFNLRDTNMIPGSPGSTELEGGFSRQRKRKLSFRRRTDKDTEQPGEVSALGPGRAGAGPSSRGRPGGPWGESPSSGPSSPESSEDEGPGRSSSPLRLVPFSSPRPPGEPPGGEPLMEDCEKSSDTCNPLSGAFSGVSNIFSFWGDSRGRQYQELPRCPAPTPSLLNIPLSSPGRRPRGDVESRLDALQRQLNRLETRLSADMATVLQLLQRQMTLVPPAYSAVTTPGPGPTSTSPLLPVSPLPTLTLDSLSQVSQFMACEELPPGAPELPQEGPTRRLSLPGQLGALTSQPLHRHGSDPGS
Chain of UniProt P22303 (P22303 whole entry, looked up): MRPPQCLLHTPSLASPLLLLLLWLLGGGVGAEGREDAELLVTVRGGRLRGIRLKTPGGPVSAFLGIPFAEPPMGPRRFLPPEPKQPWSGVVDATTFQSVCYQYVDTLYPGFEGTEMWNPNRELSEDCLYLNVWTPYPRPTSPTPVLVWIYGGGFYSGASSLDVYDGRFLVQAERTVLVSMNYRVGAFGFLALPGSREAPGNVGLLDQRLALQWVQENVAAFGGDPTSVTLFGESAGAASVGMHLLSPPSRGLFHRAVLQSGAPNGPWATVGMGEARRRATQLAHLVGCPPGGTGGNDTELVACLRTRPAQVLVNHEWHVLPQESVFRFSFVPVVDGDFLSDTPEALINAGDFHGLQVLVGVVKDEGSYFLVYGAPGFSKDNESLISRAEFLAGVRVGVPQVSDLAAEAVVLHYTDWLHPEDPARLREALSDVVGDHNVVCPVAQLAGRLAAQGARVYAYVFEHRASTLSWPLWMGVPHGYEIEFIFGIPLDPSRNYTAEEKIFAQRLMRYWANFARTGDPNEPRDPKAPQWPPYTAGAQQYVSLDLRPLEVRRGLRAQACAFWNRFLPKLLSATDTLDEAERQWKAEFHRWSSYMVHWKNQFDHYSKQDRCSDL
Chain of UniProt Q96RI1 (Q96RI1 whole entry, looked up): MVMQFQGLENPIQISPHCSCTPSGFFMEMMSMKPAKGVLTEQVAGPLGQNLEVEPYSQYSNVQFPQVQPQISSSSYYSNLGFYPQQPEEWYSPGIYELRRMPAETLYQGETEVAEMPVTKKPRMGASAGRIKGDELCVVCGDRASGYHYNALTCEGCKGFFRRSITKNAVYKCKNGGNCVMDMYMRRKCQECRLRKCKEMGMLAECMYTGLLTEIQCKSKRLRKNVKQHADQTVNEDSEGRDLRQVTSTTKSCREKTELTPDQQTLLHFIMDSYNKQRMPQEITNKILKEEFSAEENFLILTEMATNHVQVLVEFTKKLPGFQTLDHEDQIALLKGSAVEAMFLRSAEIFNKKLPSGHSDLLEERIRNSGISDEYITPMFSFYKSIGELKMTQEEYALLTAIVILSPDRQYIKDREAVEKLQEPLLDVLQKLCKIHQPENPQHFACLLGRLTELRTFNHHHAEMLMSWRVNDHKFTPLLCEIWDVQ

For `O=C(Oc1ccc(Br)cc1)N1CCN2CCC1CC2`, the Potency [1] was inconclusive: 24.3 µM [rising, partial curve], the Potency [2] was “inactive” and the Potency [3] was inconclusive: 21.9 µM [inhibitor, partial curve].
With `CCC#N` the Potency [4] was inconclusive: 12.2 µM [cytotoxic, full curve], the Potency [2] was “inactive” and the Potency [5] was “inactive”. The Potency [6] was “inactive”.
With `CON(C)C(=O)Nc1ccc(Br)cc1` the Potency [4] was “inactive”, the Potency [7] was “inactive” and the Potency [8] was “inactive”. The Potency [9] was inconclusive: 48.6 µM [activator, partial curve, poor fit].
For `COC(=O)[C@@H](N)CCCN/C(N)=N/[N+](=O)[O-]`, the Potency [4] was inconclusive: 13.4 µM [rising, partial curve, poor fit] and the Potency [2] was “inactive”.
With `CCOC(=O)C(Cl)Cc1cc(-n2nc(C)n(C(F)F)c2=O)c(F)cc1Cl` (stereo unspecified) the Potency [10] was inconclusive: 61.6 µM [cytotoxic, single point], the Potency [11] was inconclusive: 63.3 µM [inhibitor, partial curve] and the Potency [3] was active: 24.5 µM. The Potency [12] was active: 35.6 µM.
With `CC[N+]1(CCOC(=O)C(O)(c2ccccc2)c2ccccc2)CCCCC1` the Potency [13] was inconclusive: 21.3 µM [activator, partial curve] and the Potency [3] was “inactive”.
With `Cc1ccccc1CO[C@@H]1C[C@@]2(C(C)C)CC[C@]1(C)O2` the Potency [2] was “inactive”, the Potency [8] was “inactive” and the Potency [6] was “inactive”. For the same compound, the Potency [14] was inconclusive: 61.1 µM [falling, partial curve].
In the case of `C=C(Cl)Cl`, the Potency [7] is reported as “inactive” and the Potency [12] is reported as “inactive”.
With `O=C(O)CF` the Potency [15] was “inactive”.
In the case of `CCc1ccc(C2CCNCC2)cc1`, the Potency [8] is reported as “inactive” and the Potency [9] is reported as “inactive”.
For `CCC12COCN1COC2`, the Potency [13] was inconclusive: 55 µM [activator, partial curve], the Potency [16] was “inactive” and the Potency [6] was inconclusive: 0.194 µM [activator, single point]. For the same compound, the Potency [17] was “inactive”.
With `N#Cc1ccc(N(CC(N)=O)CC(F)(F)F)cc1C(F)(F)F` the Potency [13] was “inactive”, the Potency [14] was “inactive” and the Potency [12] was inconclusive: 35.6 µM [inhibitor, partial curve].
With `O=C(Cl)c1ccccc1F` the Potency [18] was “inactive”, the Potency [4] was “inactive” and the Potency [3] was “inactive”.
In the case of `N#Cc1cccnc1`, the Potency [15] is reported as “inactive”.
For `CCOC(=O)CC(SP(=O)(OC)OC)C(=O)OCC` (stereo unspecified), the Potency [18] was “inactive”, the Potency [6] was “inactive” and the Potency [11] was active: 3.02 µM and active: 3.56 µM.
With `C(CCOCC1CO1)COCC1CO1` (stereo unspecified) the Potency [18] was inconclusive: 30.2 µM [activator, full curve, poor fit], the Potency [4] was “inactive” and the Potency [1] was “inactive”. The Potency [16] was “inactive”, the Potency [7] was “inactive” and the Potency [19] was inconclusive: 34.2 µM [cytotoxic, partial curve].
For `Cc1ccc2cc(C)ccc2c1`, the Potency [18] was inconclusive: 48.5 µM [fluorescent, partial curve, poor fit], the Potency [5] was “inactive” and the Potency [15] was “inactive”.
For `CC(C)(N)Cc1ccccc1Cl`, the Potency [16] was “inactive”.
In the case of `O=C1Nc2ccc(Cl)cc2C(c2ccccc2)=NC1O` (stereo unspecified), the Potency [4] is reported as “inactive”, the activation [7] is reported as inconclusive: -0.297% and the Potency [8] is reported as inconclusive: 10.4 µM [cytotoxic, single point]. The Potency [10] was inconclusive: 49.4 µM [cytotoxic, single point] and inconclusive: 2.93 µM [cytotoxic, partial curve, poor fit] and the Potency [19] was inconclusive: 44 µM [cytotoxic, partial curve].
For `CCCOC(=O)Cc1ccc(OCC(=O)N(CC)CC)c(OC)c1`, the Potency [2] was inconclusive: 18.8 µM [rising, partial curve, poor fit] and the Potency [9] was “inactive”.
With `C=C(C)C(=O)OCC(CC)CCCC` (stereo unspecified) the activity change, negative = inhibition [1] was inconclusive: -5.97% [at 95 µM] and the Potency [19] was inconclusive: 39.6 µM [cytotoxic, partial curve].
For `CCOP(=S)(OCC)SCCSCC`, the Potency [16] was “inactive”, the activity change, negative = inhibition [14] was inconclusive: -13.4% and the Potency [11] was inconclusive: 82.2 µM [inhibitor, partial curve] and inconclusive: 30.1 µM [inhibitor, partial curve, poor fit]. For the same compound, the Potency [3] was inconclusive: 31.9 µM [inhibitor, partial curve, poor fit] and inactive and the Potency [12] was active: 4.12 µM and active: 3.8 µM.
